From article PMC5540273 (PLoS ONE, 2017)
Most of the strong results are listed elsewhere, so they are rarer here than in the full data.

Tested on: PRKCE
Settings: concentration: 1 μM,replicates: in singlicate; n = 1
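Also: KINOMEscan kinase panel screen.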

First: O=C1NC(=O)C(c2ccc(Cl)cc2)=C1Nc1ccc(O)c(Cl)c1 [SB-405367]
Second: O=C1NC(=O)C(c2ccc(Cl)cc2)=C1Nc1cccc(O)c1 [SB-333613]
The “%Inh” value of the first is lower: 0% for the first, 41% for the second.

First: O=C1NC(=O)C(c2ccc(Cl)cc2)=C1Nc1ccccc1 [SB-317661]
Second: O=C1NC(=O)C(c2ccc(Cl)cc2)=C1Nc1cccc(C(=O)O)c1 [SB-360737]
The “%Inh” value of the first is higher: 1% for the first, 0% for the second.

Going from `COc1cccc(C2=C(Nc3ccc(SC)cc3)C(=O)NC2=O)c1` [SB-331032] to `CSc1ccc(NC2=C(c3cccc(Cl)c3)C(=O)NC2=O)cc1` [SB-341528], the “%Inh” value falls from 44% to 0%.

First: Cc1ccc(C)c(Oc2nccc(-c3c(-c4ccc(F)cc4)ncn3C3CCNCC3)n2)c1.O=C(O)C(F)(F)F.O=C(O)C(F)(F)F.O=C(O)C(F)(F)F [SB-284852]
Second: Cc1cc(C)cc(Oc2nccc(-c3c(-c4ccc(F)cc4)ncn3C3CCNCC3)n2)c1.O=C(O)C(F)(F)F.O=C(O)C(F)(F)F.O=C(O)C(F)(F)F [SB-284851]
The “%Inh” value of the first is higher: 1% for the first, 0% for the second.

Compared with `O=C1NC(=O)C(c2ccccc2Cl)=C1Nc1cccc(C(=O)O)c1` [SB-390526], `O=C1NC(=O)C(c2ccccc2Cl)=C1Nc1ccccc1` [SB-376715] is higher in “%Inh” value: 2% for the first, 24% for the second.

Going from `O=C1NC(=O)C(c2ccccc2)=C1Nc1cc(Cl)c(O)c(Cl)c1` [SB-390530] to `O=C1NC(=O)C(c2ccccc2)=C1Nc1ccc(Cl)c(C(=O)O)c1` [SB-390532], the “%Inh” value rises from 0% to 30%.

Going from `O=C1NC(=O)c2c1c(-c1ccccc1)cc1[nH]c3ccc(O)cc3c21` to `COc1ccc(C2=C(Nc3cccc(Cl)c3)C(=O)NC2=O)cc1` [SB-326892], the “%Inh” value falls from 5% to 0%.

Compared with `O=C(O)c1ccc(-c2nc(-c3ccc(F)cc3)c(-c3ccncc3)[nH]2)cc1` [SB-202620], `CS(=O)(=O)c1ccccc1-c1nc(-c2ccc(F)cc2)c(-c2ccncc2)[nH]1` [SB-213663] is higher in “%Inh” value: 0% for the first, 27% for the second.

Tested on: PRKCH
Settings: concentration: 1 μM,replicates: in singlicate; n = 1

Going from `O=C1NC(=O)C(c2ccc(Cl)cc2)=C1Nc1ccc(O)c(Cl)c1` [SB-405367] to `O=C1NC(=O)C(c2ccc(Cl)cc2)=C1Nc1cccc(O)c1` [SB-333613], the “%Inh” value falls from 8% to 0%.

Compared with `O=C1NC(=O)C(c2ccc(Cl)cc2)=C1Nc1ccccc1` [SB-317661], `O=C1NC(=O)C(c2ccc(Cl)cc2)=C1Nc1cccc(C(=O)O)c1` [SB-360737] is higher in “%Inh” value: 0% for the first, 12% for the second.

`COc1cccc(C2=C(Nc3ccc(SC)cc3)C(=O)NC2=O)c1` [SB-331032] and `CSc1ccc(NC2=C(c3cccc(Cl)c3)C(=O)NC2=O)cc1` [SB-341528] are the same in “%Inh” value: 0% for the first, 0% for the second.

`Cc1ccc(C)c(Oc2nccc(-c3c(-c4ccc(F)cc4)ncn3C3CCNCC3)n2)c1.O=C(O)C(F)(F)F.O=C(O)C(F)(F)F.O=C(O)C(F)(F)F` [SB-284852] and `Cc1cc(C)cc(Oc2nccc(-c3c(-c4ccc(F)cc4)ncn3C3CCNCC3)n2)c1.O=C(O)C(F)(F)F.O=C(O)C(F)(F)F.O=C(O)C(F)(F)F` [SB-284851] are the same in “%Inh” value: 0% for the first, 0% for the second.

`O=C1NC(=O)C(c2ccccc2Cl)=C1Nc1cccc(C(=O)O)c1` [SB-390526] and `O=C1NC(=O)C(c2ccccc2Cl)=C1Nc1ccccc1` [SB-376715] are the same in “%Inh” value: 0% for the first, 0% for the second.

`O=C1NC(=O)C(c2ccccc2)=C1Nc1cc(Cl)c(O)c(Cl)c1` [SB-390530] and `O=C1NC(=O)C(c2ccccc2)=C1Nc1ccc(Cl)c(C(=O)O)c1` [SB-390532] are the same in “%Inh” value: 0% for the first, 0% for the second.

Compared with `O=C1NC(=O)c2c1c(-c1ccccc1)cc1[nH]c3ccc(O)cc3c21`, `COc1ccc(C2=C(Nc3cccc(Cl)c3)C(=O)NC2=O)cc1` [SB-326892] is lower in “%Inh” value: 34% for the first, 0% for the second.

`O=C(O)c1ccc(-c2nc(-c3ccc(F)cc3)c(-c3ccncc3)[nH]2)cc1` [SB-202620] and `CS(=O)(=O)c1ccccc1-c1nc(-c2ccc(F)cc2)c(-c2ccncc2)[nH]1` [SB-213663] are the same in “%Inh” value: 0% for the first, 0% for the second.
